# In PubChem BioAssay AID504333 (National Center for Advancing Translational Sciences (NCATS), 2011):
# Among all 360,000 compounds or so, about 16,000 (4.4%) were called active. Inconclusive results, whose numbers are uncertain, are shown with a selection of clear calls. Calls follow the shape of the dose curve; as a rule, active = well fitted inhibition curve with a large enough effect; inconclusive = small, poorly fitted or top-dose-only effect; inactive = no such curve, though single readings can be large or run the other way. Potencies beside an inconclusive call are fits to weak or partial responses and may not hold up.
# Target: Bromodomain adjacent to zinc finger domain protein 2B (Homo sapiens) (UniProt Q9UIF8)
# Assay: qHTS Assay for Inhibitors of BAZ2B; also: nearly all actives have a fitted effect of over 60% in size
# Conditions: AlphaScreen BAZ2B-H3K14Ac peptide displacement; activity change, negative = inhibition: at 114 µM (top of the series)
# How it was run: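 BAZ2B (50 nM) with biotin-H3(5-23)K14Ac peptide (50 nM) in PBS pH 7.4, 0.01% Tween-20, preformed 30 min, then compound 30 min at room temperature; top concentration 110uM. AlphaScreen streptavidin donor/nickel chelate acceptor beads (10 ug/mL final), 20 min dark, signal read.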
# % is scaled to controls: 0 for no effect and ±100 for the full control effect; potency is read from the fitted curve at half-maximal effect; tags tell the direction and shape of the fitted curve.
# Chain of UniProt Q9UIF8 (Q9UIF8 whole entry, looked up, the tested form may be a part): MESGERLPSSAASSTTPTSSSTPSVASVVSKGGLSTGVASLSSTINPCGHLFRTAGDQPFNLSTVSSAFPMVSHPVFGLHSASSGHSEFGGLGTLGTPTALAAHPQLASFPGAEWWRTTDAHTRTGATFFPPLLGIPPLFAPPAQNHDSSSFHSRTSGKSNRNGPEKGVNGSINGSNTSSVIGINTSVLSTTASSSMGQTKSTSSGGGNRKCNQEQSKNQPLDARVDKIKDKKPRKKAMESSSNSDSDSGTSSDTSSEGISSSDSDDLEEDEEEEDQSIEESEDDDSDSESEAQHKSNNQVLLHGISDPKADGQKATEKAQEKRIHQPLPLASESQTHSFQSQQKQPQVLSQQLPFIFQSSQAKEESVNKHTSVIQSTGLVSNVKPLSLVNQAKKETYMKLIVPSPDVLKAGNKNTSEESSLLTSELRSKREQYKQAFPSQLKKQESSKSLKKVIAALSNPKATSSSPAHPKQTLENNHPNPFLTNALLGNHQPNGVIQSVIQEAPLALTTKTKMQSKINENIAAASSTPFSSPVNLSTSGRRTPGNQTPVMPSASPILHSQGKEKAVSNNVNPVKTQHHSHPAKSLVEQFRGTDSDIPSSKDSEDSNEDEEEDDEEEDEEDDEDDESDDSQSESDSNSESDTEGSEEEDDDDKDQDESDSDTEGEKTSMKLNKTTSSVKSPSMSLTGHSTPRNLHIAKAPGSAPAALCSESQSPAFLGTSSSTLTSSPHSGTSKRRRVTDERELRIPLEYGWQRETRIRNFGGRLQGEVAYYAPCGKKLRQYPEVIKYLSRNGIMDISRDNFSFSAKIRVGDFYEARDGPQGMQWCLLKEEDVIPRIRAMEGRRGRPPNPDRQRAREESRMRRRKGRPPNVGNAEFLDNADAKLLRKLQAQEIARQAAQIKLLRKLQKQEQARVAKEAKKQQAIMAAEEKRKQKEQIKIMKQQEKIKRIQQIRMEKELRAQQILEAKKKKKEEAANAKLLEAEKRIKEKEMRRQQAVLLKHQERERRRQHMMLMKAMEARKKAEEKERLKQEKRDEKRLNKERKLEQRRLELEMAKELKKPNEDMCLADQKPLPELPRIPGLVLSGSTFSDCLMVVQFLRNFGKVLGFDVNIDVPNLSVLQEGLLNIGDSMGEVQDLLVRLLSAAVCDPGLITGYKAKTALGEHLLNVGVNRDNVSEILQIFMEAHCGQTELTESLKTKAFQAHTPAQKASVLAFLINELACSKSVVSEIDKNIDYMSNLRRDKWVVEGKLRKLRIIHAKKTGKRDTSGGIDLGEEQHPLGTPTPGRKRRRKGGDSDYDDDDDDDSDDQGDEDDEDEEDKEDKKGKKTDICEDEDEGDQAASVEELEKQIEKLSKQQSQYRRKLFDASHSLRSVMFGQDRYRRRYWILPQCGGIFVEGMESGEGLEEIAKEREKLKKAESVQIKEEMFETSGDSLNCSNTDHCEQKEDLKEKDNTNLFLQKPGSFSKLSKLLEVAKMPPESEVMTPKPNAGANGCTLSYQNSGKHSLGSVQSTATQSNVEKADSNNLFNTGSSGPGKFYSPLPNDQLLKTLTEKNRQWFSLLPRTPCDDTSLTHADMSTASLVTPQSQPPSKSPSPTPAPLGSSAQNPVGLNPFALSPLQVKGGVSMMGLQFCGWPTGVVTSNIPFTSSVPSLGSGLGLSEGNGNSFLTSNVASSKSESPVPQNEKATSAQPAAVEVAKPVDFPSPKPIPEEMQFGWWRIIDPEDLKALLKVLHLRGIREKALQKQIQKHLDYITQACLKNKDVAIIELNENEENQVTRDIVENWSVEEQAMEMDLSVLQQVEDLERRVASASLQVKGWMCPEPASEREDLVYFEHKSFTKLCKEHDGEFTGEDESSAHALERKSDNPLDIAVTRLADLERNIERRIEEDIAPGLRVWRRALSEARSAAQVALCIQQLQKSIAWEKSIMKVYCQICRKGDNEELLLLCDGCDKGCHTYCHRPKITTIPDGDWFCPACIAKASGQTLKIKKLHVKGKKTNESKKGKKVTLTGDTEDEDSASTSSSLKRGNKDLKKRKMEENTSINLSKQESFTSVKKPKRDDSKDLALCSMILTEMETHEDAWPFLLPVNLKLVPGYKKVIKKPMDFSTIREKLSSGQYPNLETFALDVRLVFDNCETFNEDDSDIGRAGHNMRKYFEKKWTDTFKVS
SMILES,Potency,"activity change, negative = inhibition"
COc1ccc2sc(N(CCCN(C)C)C(=O)c3ccc(S(=O)(=O)N(C)Cc4ccccc4)cc3)nc2c1,"inconclusive: 44.7 µM [inhibitor, partial curve]",–
Cn1c(N)c(C(=O)COC(=O)CSc2cccc3cccc(Cl)c23)c(=O)n(C)c1=O,"inconclusive: 79.4 µM [inhibitor, single point]",–
CCN1CCSc2ccc(C(=O)NCc3ccccc3C)cc21,"inconclusive: 79.4 µM [inhibitor, single point]",–
CCOC(=O)c1cc2c(ccn2C)n1Cc1ccc(Cl)cc1,active: 50.1 µM,–
COC(CNc1ncnc2c1cnn2C)OC,"inconclusive: 44.7 µM [inhibitor, partial curve]",–
COc1ccc(CNC(=O)c2sc3nc4n(c(=O)c3c2C)CCCCC4)cc1,active: 15.8 µM,–
CCC(C)Oc1ccc(/C=C/c2[nH]c(=O)[nH]c(=O)c2[N+](=O)[O-])cc1OC (stereo unspecified),"inconclusive: 70.8 µM [inhibitor, single point]",–
CN(C)CC(C)(C)CNC(=O)C1CCN(Cc2ccccc2O)CC1,active: 56.2 µM,–
COc1cc(/C=C/C(=O)OCC(=O)NCCc2ccccc2)ccc1OC(F)F,"inconclusive: 31.6 µM [inhibitor, single point]",–
O=C(Nc1cccc(N2CCCC2)c1)c1cccs1,"inconclusive: 39.8 µM [inhibitor, full curve]",–
O=C1CC(=O)N(c2cccc(F)c2)N1,–,inactive: -38.5%
Cc1cc(OCCN2CCC(Cc3ccccc3)CC2)ccc1[N+](=O)[O-],"inconclusive: 44.7 µM [inhibitor, partial curve]",–
Cc1cc(NC(=O)c2ocnc2C)no1,–,inactive: 0.938%
CSc1ccccc1NC(=O)c1noc2c1CCC2,active: 39.8 µM,–
CC(C)Cn1c(=O)c2ccccc2n2c(CCC(=O)Nc3ccc(F)cc3)nnc12,–,inactive: -1.44%
C#CCOCCOCCOCCNc1nc(N2CCN(C(=O)[C@H]([C@@H](C)CC)n3cc(CCCCN)nn3)CC2)nc(N2CCN(C(=O)[C@H](CCCCN)n3cc(CC(C)O)nn3)CC2)n1 (stereo partly specified),"inconclusive: 89.1 µM [inhibitor, single point]",–
CCOc1cccc(CC(=O)N2CCc3c([nH]c4ccccc34)C2c2ccc(SC)cc2)c1OCC (stereo unspecified),–,inactive: -35.8%
O=C(COc1ccccc1)Nc1ccc(S(=O)(=O)NCc2ccco2)cc1,"inconclusive: 50.1 µM [inhibitor, partial curve]",–
CCOc1ccc(NC(=O)Cn2nc(Cc3ccncc3)c3ccccc3c2=O)cc1,"inconclusive: 79.4 µM [inhibitor, single point]",–
O=C(CNC(=O)/C(=C\c1ccc(F)cc1)NC(=O)c1ccccc1)OCc1ccccc1,"inconclusive: 89.1 µM [inhibitor, single point]",–
COc1cc2[nH]c3c(N4CCN(c5ccccn5)CC4)ncnc3c2cc1OC,"inconclusive: 44.7 µM [inhibitor, partial curve]",–
COc1ccc(-c2nc3c4ccccc4ccn3c2CN2CCOCC2)cc1OC,"inconclusive: 50.1 µM [inhibitor, partial curve]",–
Cc1nc(NCc2ccco2)c2c3c(sc2n1)CCC3,"inconclusive: 89.1 µM [inhibitor, single point]",–

SMILES,Potency,"activity change, negative = inhibition"
CCOc1ccc(NC(=O)CN(C)C(=O)c2cc3c(s2)CCC(C)C3)cc1OCC (stereo unspecified),–,inactive: -12.9%
Cc1ccccc1C(=O)Nc1nnc(-c2ccco2)s1,"inconclusive: 89.1 µM [inhibitor, single point]",–
N[C@@H](CO)c1nnc([C@H](CCC(=O)O)NC(=O)C2CCNCC2)o1,"inconclusive: 35.5 µM [inhibitor, partial curve]",–
CCc1cccc(NC(=O)C2CCN(S(=O)(=O)c3c(C)noc3C)CC2)c1,"inconclusive: 89.1 µM [inhibitor, single point]",–
Cc1ccc(-c2nc(CCNC(=O)C(=O)Nc3c(C)cccc3C)cs2)cc1,–,inactive: 28.4%
Cn1c(=O)n(C)c2cc(S(=O)(=O)NCc3ccco3)ccc21,"inconclusive: 89.1 µM [inhibitor, single point]",–
COc1cc(-c2c(C#N)c(N)nc3[nH]c(=S)[nH]c(=O)c23)ccc1O,–,inactive: -4.65%
CCC(C(=O)NCCC(C)C)N(Cc1ccccc1Cl)C(=O)c1snc(C(N)=O)c1N (stereo unspecified),"inconclusive: 89.1 µM [inhibitor, single point]",–
Cc1ccc(C2C3=C(CC(C)(C)CC3=O)N=C3c4ccccc4C(=O)C32)cc1 (stereo unspecified),active: 15.8 µM,–
O=C(Oc1ccc(Cl)cc1)c1ccc(N2CCOCC2)c([N+](=O)[O-])c1,"inconclusive: 14.1 µM [inhibitor, full curve]",–
Cc1ccc(NC(=O)CN2C(=O)COc3ccc(S(=O)(=O)N4CCCCCC4)cc32)c(C)c1,–,inactive: -14.8%
CN(C)S(=O)(=O)c1ccc(N2CCCC2)c(C(=O)NCC2CCCCC2)c1,–,inactive: -22.4%
Cc1ccc(/C=N/Nc2ccc3ccccc3n2)o1,"inconclusive: 50.1 µM [inhibitor, partial curve]",–
O=C(Nc1cccc(C(F)(F)F)c1)C1CCN(S(=O)(=O)c2cccnc2)CC1,–,inactive: -3.9%
O=C(c1cccc(Cl)c1)N1CCN(S(=O)(=O)c2ccc(Cl)s2)CC1,–,inactive: 5.25%
Cc1cc(-c2n[nH]c(=S)n2/N=C/c2cccs2)n[nH]1,–,inactive: -38.3%
Cc1cccc2cc(CN(C(=O)c3cccc([N+](=O)[O-])c3)C(C)C)c(=O)[nH]c12,–,inactive: 0.649%
Cc1cc(Cl)ccc1-n1c(CCC(=O)O)ccc1-c1cccs1,active: 44.7 µM,–
CN(C)c1ccc(-c2nnn(CC(=O)Nc3ccccc3N3CCOCC3)n2)cc1,"inconclusive: 28.2 µM [inhibitor, partial curve]",–
CCc1ccc(Nc2ccc(C(N)=O)cc2[N+](=O)[O-])cc1,"inconclusive: 39.8 µM [inhibitor, full curve, poor fit]",–
OC(CNC1CCCCCC1)COc1cccc2ccccc12 (stereo unspecified),"inconclusive: 50.1 µM [inhibitor, partial curve]",–
O=c1cc(CSc2nnc(-c3cccs3)n2Cc2ccccc2)nc2sc3ccccc3n12,active: 44.7 µM,–
COc1ccc(-n2c(C)cc(C(=O)Cn3c(NCCO)nc4ccccc43)c2C)cc1,active: 50.1 µM,–
